# Assay results published in PMC4336329 (PLoS ONE, 2015).
# About 14,000 (4.5%) of roughly 310,000 compounds showed an effect of 50% or more. Effects have a minus sign here. Some of the results follow.
# Molecular target: human ether-à-go-go-related gene (hERG) potassium channel (human, UniProt Q12809)
# Test: primary screen, population patch clamp on CHO cells stably expressing hERG
# 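Note: peak tail current of the secondary pulse compared with the same well before compound.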
# Sequence of human ether-à-go-go-related gene (hERG) potassium channel (Q12809 whole entry, looked up): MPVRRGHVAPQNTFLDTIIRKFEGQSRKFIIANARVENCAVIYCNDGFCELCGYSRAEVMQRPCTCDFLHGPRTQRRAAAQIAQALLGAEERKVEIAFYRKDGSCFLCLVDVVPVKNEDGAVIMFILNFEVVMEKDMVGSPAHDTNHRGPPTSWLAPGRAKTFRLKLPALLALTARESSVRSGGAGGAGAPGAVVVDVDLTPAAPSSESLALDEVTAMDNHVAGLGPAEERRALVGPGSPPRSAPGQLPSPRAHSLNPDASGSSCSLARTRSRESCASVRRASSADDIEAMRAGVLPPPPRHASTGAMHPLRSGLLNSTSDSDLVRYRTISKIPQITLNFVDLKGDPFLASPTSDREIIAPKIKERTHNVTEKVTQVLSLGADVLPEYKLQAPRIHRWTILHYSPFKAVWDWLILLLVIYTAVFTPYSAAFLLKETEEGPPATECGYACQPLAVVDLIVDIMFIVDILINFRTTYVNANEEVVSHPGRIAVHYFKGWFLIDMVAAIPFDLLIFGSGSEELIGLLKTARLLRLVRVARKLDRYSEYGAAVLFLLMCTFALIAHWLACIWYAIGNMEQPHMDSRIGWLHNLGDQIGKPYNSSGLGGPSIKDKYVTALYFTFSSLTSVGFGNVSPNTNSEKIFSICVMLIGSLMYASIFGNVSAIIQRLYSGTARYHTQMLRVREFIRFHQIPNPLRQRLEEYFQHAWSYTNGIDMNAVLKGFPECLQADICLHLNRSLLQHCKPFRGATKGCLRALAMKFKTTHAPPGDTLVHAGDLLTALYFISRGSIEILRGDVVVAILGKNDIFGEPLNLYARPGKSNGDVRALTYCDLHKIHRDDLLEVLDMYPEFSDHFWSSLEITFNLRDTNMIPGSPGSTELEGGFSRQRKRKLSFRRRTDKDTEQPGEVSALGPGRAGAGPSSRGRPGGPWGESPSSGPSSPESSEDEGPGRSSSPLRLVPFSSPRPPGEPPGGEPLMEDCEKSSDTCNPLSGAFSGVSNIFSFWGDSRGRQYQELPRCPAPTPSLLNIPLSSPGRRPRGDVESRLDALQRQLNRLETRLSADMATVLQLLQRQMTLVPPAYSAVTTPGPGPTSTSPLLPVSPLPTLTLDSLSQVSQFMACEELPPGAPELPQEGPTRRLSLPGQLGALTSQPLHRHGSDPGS
row,SMILES,"hERG current change (%, negative = inhibition) at 10uM"
1,CCOC(=O)c1c(NC(=O)CSc2nnnn2-c2ccccc2)sc2c1CC(C)(C)NC2(C)C,-64.3%
2,O=S(=O)(/C=C/c1ccccc1)N1CCN(Cc2ccc3c(c2)OCO3)CC1,-14.4%
3,COc1ccc(OC)c(/C=N/NC(=O)CCN2CCN(C(c3ccccc3)c3ccccc3)CC2)c1,-2.39%
4,COc1ccc(S(=O)(=O)N2CCCCCC2)cc1NC(=O)c1ccccc1S(C)(=O)=O,-26.5%
5,CCOC(=O)c1[nH]c2ccc(F)cc2c1NC(=O)CCN1CCSCC1,-22%
6,COc1ccc(C(=O)NN/C(=N/S(=O)(=O)c2ccc(C)cc2)c2ccccc2)cc1,-4.03%
7,Cc1ccnc(NS(=O)(=O)c2ccc(NS(=O)(=O)c3ccc([N+](=O)[O-])cc3)cc2)n1,8.49%
8,COc1ccc(S(=O)(=O)N(CCc2ccccc2)CC(=O)O)cc1C,1.65%
9,COc1cc(-c2nc3ccc(C)cn3c2Nc2ccc3c(c2)OCCO3)ccc1O,-18%
10,COc1ccc(C(=O)NCCn2cc(SCC(=O)Nc3nnc(C)s3)c3ccccc32)cc1,-28.8%
11,O=C(COc1ccccc1F)NCC(c1ccco1)N1CCCC1 (centres unmarked),45.9%
12,CCOC(=O)C1CCN(C(=O)C2CCN(S(=O)(=O)c3cc(Cl)ccc3OCC)CC2)CC1,-11%
13,Cc1ccc2[nH]c(=O)c3cc(C(=O)N(C)C4CCCCC4)sc3c2c1,19%
14,CN(C)c1ccc(S(=O)(=O)N2CCCCC2)cc1NC(=O)C1=NN(c2ccccc2)C(=O)CC1,-21.8%
15,Cc1ccc(-c2cc(C(=O)OCn3nnc4ccccc4c3=O)c3ccccc3n2)cc1,20.2%
16,CCOc1ccc(C(=O)N(CC)CC(=O)Nc2ccc3c(c2)OCCO3)cc1,-11.4%
17,Cc1cc(=O)n(C)c(=O)n1CCCCCCOc1ccc([N+](=O)[O-])cc1,-63.9%
18,COc1ccc(NC(=O)N[C@@H](CCSC)C(=O)O)cc1Cl,-3.45%
19,Cc1cc(C(=O)NP(=O)(N2CCOCC2)N2CCOCC2)c(C)n1-c1ccc(N(C)C)cc1,5.48%
20,COCCCN(C(=O)Cn1ncc2c(=O)oc3ccc(C)cc3c21)C(C)c1ccncc1 (centres unmarked),-45.3%
21,COC(=O)c1ccc(NC(=O)Cn2nnc(-c3cccs3)n2)cc1,16.2%
22,Cc1nn(-c2ccc(N3CCOCC3)nn2)c(C)c1CCC(=O)Nc1ccccc1,12.6%

row,SMILES,"hERG current change (%, negative = inhibition) at 10uM"
1,CC(C)C(NC(=S)Nc1ccccc1)C(=O)O (centres unmarked),5.62%
2,Cc1c(Cl)cccc1NC(=S)NCc1ccc2c(c1)OCO2,-7.41%
3,O=C(CN(C(=O)c1csnn1)c1ccc(Br)cc1)NC1CCCC1,3.32%
4,Oc1ccc(/C=N/Nc2ncnc3c2ncn3Cc2ccccc2)cc1O,-16.8%
5,O=C(N/N=C/c1ccc(O)cc1)Nc1cccc2nsnc12,-23.8%
6,CC(C)(C)NC(=O)CN(Cc1ccc2c(c1)OCO2)C(=O)CNS(=O)(=O)c1ccc(F)cc1,13.2%
7,O=C(N/C(=C\c1ccc(Br)cc1)C(=O)N1CCOCC1)c1ccc([N+](=O)[O-])cc1,-75.5%
8,Fc1cccc(Cl)c1C1Nc2cccc3cccc(c23)N1,-26.2%
9,CCOC(=O)CCN=Cc1c(O)n(-c2ccc(Br)cc2)c(=O)[nH]c1=O,0.12%
10,CCCn1c(CN2CCN(C(=O)OCC)CC2)nc2cc(NC(=O)C(C)C)ccc21,3.39%
11,O=C(NCCC1=CCCCC1)C(=O)NCC1OCCCN1S(=O)(=O)c1ccc(F)cc1 (centres unmarked),-9.66%
12,COc1ccc(C(C(=O)NCC2CCCO2)N(C(=O)CNC(=O)c2cccs2)c2ccc(C(C)=O)cc2)cc1OC (centres unmarked),22.8%
13,CC(C)N(C(=O)Nc1ccc2nccnc2c1)C(C)C,9.1%
14,COc1ccc(-n2c(SCC(=O)Nc3ccccc3C)nc(O)c(Cc3ccccc3)c2=O)cc1,14.8%
15,O=C(COc1coc(CN2CCN(c3ccccc3)CC2)cc1=O)Nc1ccc(F)cc1,4.23%
16,O=C(CN1CCN(S(=O)(=O)c2ccccc2F)CC1)NC1CCCC1,6.2%
17,CCN(Cc1ccc(C#CCCO)cc1)CC1CCCN(CCc2cccc(OC)c2)C1 (centres unmarked),-58.5%
18,Cc1cc(C)n(C(=O)CNC(=O)c2cccs2)n1,13.7%
19,CC(C)c1ccc(N2C(=O)NC(=O)/C(=C/c3cnc(-c4ccccc4)nc3)C2=O)cc1,-1.15%
20,O=C(CN(Cc1ccccc1)C(=O)CCC(=O)Nc1nccs1)NCc1ccccc1,-4.27%
21,Cc1cc(C)cc(N2CCCn3c2nc2c3c(=O)n(CCN3CCOCC3)c(=O)n2C)c1,-18.1%
22,OCCCc1nc2ccccc2[nH]1,3.53%

row,SMILES,"hERG current change (%, negative = inhibition) at 10uM"
1,COc1ccc(NC(=O)c2cnc(SC)nc2C)c(OC)c1,9.57%
2,COCC1CCN(C(=O)C2CCC(=O)N(C3CCCCCC3)C2)CC1 (centres unmarked),5.5%
3,CN(C)S(=O)(=O)Oc1ccccc1C(=O)Nc1ccc(F)cc1,6.76%
4,Fc1c(F)c(F)c(N/N=C/c2c[nH]c3ccccc23)c(F)c1F,12.6%
5,COC(=O)c1ccc(NC(=O)c2cccc(C)c2[N+](=O)[O-])cc1,9.73%
6,O=C(Nc1nn[nH]n1)c1ccc(S(=O)(=O)N2CCCCC2)cc1,38%
7,O=C(Cc1ccsc1)N1CCc2c([nH]c3ccccc23)C1c1ccccn1 (centres unmarked),4.87%
8,O=C1CSC(=S)N1c1ccc(O)cc1,6.3%
9,COc1ccc(C(=O)CN2CCN(c3ccc(F)cc3)CC2)cc1,-38.3%
10,Cn1nccc1CNC(=O)c1ccnn1C,14.9%
11,COC(=O)[C@H](Cc1ccccc1)NC(=O)N1Cc2ccccc2C[C@H]1C(=O)OC,-1.29%
12,Cc1c2c(n3c(nc4ccccc43)c1C#N)N(CCCN(C)C)CC2,-15.3%
13,CCNC(=O)c1c(O)c2c([nH]c1=O)CCCC2,15.6%
14,CCOC(=O)c1nc(NCc2cccc(OC)c2)c2ccccc2n1,-13.5%
15,CSc1nc(C)cc(-n2cc(F)c(=O)[nH]c2=O)n1,-6.23%
16,Cc1cccc(NC(=S)NNC(=O)c2csc3c2CCC(C)C3)c1 (centres unmarked),-2.63%
17,COc1ccccc1NC(=O)CC1SC(=N)N(c2ccccc2)C1=O (centres unmarked),0.0676%
18,Cc1ccc2c(=O)c(C(=O)NCc3cccs3)c[nH]c2c1,3.23%
19,CC(C)c1ccccc1NC(=O)COC(=O)c1ccc(Cl)c(S(=O)(=O)N2CCCCCC2)c1,20.9%
20,Cc1c(C)c2ccc(OCC(=O)N3CCC(C(=O)O)(c4ccccc4)CC3)cc2oc1=O,-2.07%
21,CCC(=O)NC(c1ccc(C)cc1)c1cc([N+](=O)[O-])c2cccnc2c1O (centres unmarked),35.7%
22,CCOc1ccccc1CN1C(=O)NC(C)(c2ccccc2)C1=O (centres unmarked),-3.52%

row,SMILES,"hERG current change (%, negative = inhibition) at 10uM"
1,COc1cc(/C=N/NC(=O)CSc2ccccn2)ccc1OC(C)C,-1.7%
2,COc1ccc(CN(C(=O)/C=C/c2ccccc2Cl)C2CCS(=O)(=O)C2)cc1 (centres unmarked),-16.9%
3,O=C1/C(=C2\C(=O)N(Cc3ccc(F)cc3)c3ccccc32)SC(=S)N1CCS(=O)(=O)O,4.31%
4,CCCc1nnc(NC(=O)c2ccncc2)s1,-3.78%
5,Cc1ccc(N2C(=O)C(CN3CCCCC3)C2c2ccccc2)cc1 (centres unmarked),-62.6%
6,NNC(=O)c1csc(-c2cccc(C(F)(F)F)c2)n1,-30%
7,CCc1noc(C)c1C(=O)Nc1ncc(C)s1,10.4%
8,COc1ccc(NC(=O)NC2(C(=O)N3CCCCC3)CCCCC2)cc1,24.8%
9,CCOc1ccccc1OCCCC(=O)NNC(=O)c1nn(C)c(=O)c2ccccc12,-20.3%
10,COc1cccc(C(=O)c2cn(CC(=O)NCc3ccco3)c3nc(C)ccc3c2=O)c1,-2.12%
11,Cl.OCCN1CCN(c2ncnc3ccc(Br)cc23)CC1,0.812%
12,Cc1nc(CC(=O)c2c(C)cc(O)cc2O)cs1,5.96%
13,COc1ccc(-c2nn(-c3ccccc3)cc2/C=N/Nc2ccccn2)cc1,23%
14,CCOC(=O)c1[nH]c(C)c(C(=O)Nc2ccc3c(c2)OCCO3)c1C,-5.88%
15,COc1ccc(NC(=O)CN(C)C(=O)c2cc(-c3ccc(Cl)cc3)nc3ccccc23)cc1,-3.02%
16,COc1ccccc1NC(=O)c1cccc(S(=O)(=O)N2CCN(c3ccccc3)CC2)c1,-11.2%
17,Cc1ccc2oc(=O)cc(CN3CCN(Cc4ccccc4)CC3)c2c1,-56.8%
18,CCOC(=O)NC(CC(=O)O)c1ccc(OC)cc1 (centres unmarked),7.43%
19,COCCNC(=O)Cn1cnc2c1c(=O)n(C)c(=O)n2C,6.51%
20,COC(=O)c1cc2c(ccc3ccccc32)oc1=O,-8.56%
